The whole screen tested about 390,000 compounds, of which about 17,000 (4.4%) were called active. The inconclusive results got no clear call from the source; some entries with a clear call stand among them for comparison. Calls come from the whole dose curve; as a rule, active = well fitted inhibition curve with a large enough effect; inconclusive = small, poorly fitted or top-dose-only effect; inactive = no such curve, though single readings can be large or run the other way. Potencies of inconclusive entries are doubtful fits and often do not repeat.
Target: Lysine-specific demethylase 4A (Homo sapiens) (UniProt O75164)
Experiment: qHTS Assay for Inhibitors of JMJD2A-Tudor Domain; note: nearly all actives have a fitted effect of over 50% in size
Settings: AlphaScreen JMJD2A-Tudor / H3K4me3 peptide binding; activity change, negative = inhibition: at 114 µM (top of the series)
% is set by controls: 0 for no effect and ±100 for the full control effect; potency is the fitted concentration of half-maximal effect; tags give direction and shape of the fitted curve.

Sequence of UniProt O75164 (O75164 whole entry, looked up, the tested form may be a part): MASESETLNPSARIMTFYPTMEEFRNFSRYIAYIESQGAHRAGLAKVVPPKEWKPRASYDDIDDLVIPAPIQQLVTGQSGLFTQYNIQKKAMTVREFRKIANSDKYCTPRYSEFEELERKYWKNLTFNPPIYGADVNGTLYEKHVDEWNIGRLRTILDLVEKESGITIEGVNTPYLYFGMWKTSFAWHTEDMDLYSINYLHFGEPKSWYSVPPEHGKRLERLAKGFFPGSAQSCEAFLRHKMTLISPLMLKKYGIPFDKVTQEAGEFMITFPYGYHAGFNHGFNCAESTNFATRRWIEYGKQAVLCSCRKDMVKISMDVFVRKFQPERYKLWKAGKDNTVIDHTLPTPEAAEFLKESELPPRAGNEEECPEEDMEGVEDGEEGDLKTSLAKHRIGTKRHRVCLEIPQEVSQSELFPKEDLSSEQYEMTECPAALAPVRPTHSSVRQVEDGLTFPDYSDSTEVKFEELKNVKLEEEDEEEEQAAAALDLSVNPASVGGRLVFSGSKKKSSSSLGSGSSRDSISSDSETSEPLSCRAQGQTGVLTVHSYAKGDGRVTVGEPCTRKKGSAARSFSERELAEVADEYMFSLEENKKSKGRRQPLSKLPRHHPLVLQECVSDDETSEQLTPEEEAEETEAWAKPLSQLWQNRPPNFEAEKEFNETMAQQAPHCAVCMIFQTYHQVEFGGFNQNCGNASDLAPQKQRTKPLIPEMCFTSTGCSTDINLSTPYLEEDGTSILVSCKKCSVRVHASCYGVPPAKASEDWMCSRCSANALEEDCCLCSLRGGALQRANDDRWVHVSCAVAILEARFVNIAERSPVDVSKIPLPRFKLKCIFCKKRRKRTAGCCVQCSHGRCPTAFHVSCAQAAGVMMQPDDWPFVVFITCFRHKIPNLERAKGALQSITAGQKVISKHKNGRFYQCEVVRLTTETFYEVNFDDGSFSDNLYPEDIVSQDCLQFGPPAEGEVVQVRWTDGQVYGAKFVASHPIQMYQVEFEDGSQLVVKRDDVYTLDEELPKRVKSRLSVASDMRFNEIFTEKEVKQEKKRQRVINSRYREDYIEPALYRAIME

| SMILES | Potency | activity change, negative = inhibition |
| --- | --- | --- |
| Cc1ccc(-c2nc3cccnc3o2)cc1NC(=O)COc1ccc(Cl)cc1C | inconclusive: 70.8 µM [inhibitor, partial curve, poor fit] | – |
| COc1ccccc1N1CCN(Cc2cc(=O)c(OCC(=O)NC(C)C)co2)CC1 | inconclusive: 25.1 µM [inhibitor, full curve] | – |
| Cc1cc(NC(=O)c2ccccc2C)no1 | inconclusive: 31.6 µM [inhibitor, single point] | – |
| Oc1ccccc1N=Nc1nc(-c2ccccc2)c(-c2ccccc2)[nH]1 | active: 12.6 µM | – |
| O=C(NCc1ccco1)c1cccc2c1C(=O)c1ccc(/C=C/c3ccccc3)cc1S2(=O)=O | active: 39.8 µM | – |
| O=C1CC(=C(c2ccccc2)c2ccccc2)C(=O)N1CCCN1CCN(c2cccc(Cl)c2)CC1 | inconclusive: 63.1 µM [inhibitor, partial curve, poor fit] | – |
| CC(NC(=O)c1sc2cc([N+](=O)[O-])ccc2c1Cl)C(C)(C)C (stereo not drawn) | active: 50.1 µM | – |
| Cc1c(NC(=O)c2ccco2)cccc1-c1nc2cccnc2s1 | inconclusive: 79.4 µM [inhibitor, partial curve] | – |
| COc1ccccc1/C=C(\C#N)C(=O)c1cccn1C | inconclusive: 15.8 µM [inhibitor, partial curve] | – |
| COc1ccc(N2CCN(CCCNC(=O)CC3Oc4ccc(C)cc4NC3=O)CC2)cc1 (stereo not drawn) | inconclusive: 50.1 µM [inhibitor, partial curve] | – |
| Cc1ccc(C)c(OCC(=O)NNC(=O)CCN2CCN(c3ccccc3)CC2)c1 | inactive | – |
| CCN(CC)C(=O)c1sc(NC(=O)Cc2ccccc2)c(C#N)c1C | inactive | – |
| Cc1cccc(N2CCN(C(=O)CCS(=O)(=O)c3ccc(Br)cc3)CC2C)c1 (stereo not drawn) | – | inconclusive: -95.3% [inhibitor] |
| C=CCNc1nc2c(c(=O)n(C)c(=O)n2C)n1CC(=C)C | inactive | – |
| COc1ccc(N2CCN(CCCNC(=O)C(=O)c3c(C)[nH]c4ccccc34)CC2)cc1 | active: 44.7 µM | – |
| Cc1ccc(Cl)cc1NC(=O)C(=O)NCC(c1cccnc1)N1CCc2ccccc21 (stereo not drawn) | inconclusive: 25.1 µM [inhibitor, full curve] | – |
| CCCN(C(=O)Cc1nc(N)n[nH]1)C1(C(=O)Nc2ccccc2C)CCCCC1 | inconclusive: 70.8 µM [inhibitor, single point] | – |
| O[C@@H]1CN(C2CCN(Cc3ccccc3)CC2)CC[C@H]1N1CCCCCC1 | inconclusive: 50.1 µM [inhibitor, partial curve] | – |
| CC(=O)NC1=CC(=O)c2nonc2C1=O | inconclusive: 11.2 µM [inhibitor, partial curve] | – |
| Clc1ccc(C2[C@H]3CN(Cc4cccnc4)[C@H](c4ccccc4)C34CC2(c2cccnc2)C4)cn1 (stereo partly drawn) | inconclusive: 35.5 µM [inhibitor, full curve] | – |
| c1ccc(CN(Cc2ccco2)C(c2ccncc2)c2nnnn2C2CCCC2)cc1 (stereo not drawn) | inconclusive: 79.4 µM [inhibitor, partial curve] | – |
| Cc1cccc(-n2c(CNC(=O)c3ccc(S(=O)(=O)N4CCCC4)cc3)n[nH]c2=S)c1 | active: 10 µM | – |

| SMILES | Potency | activity change, negative = inhibition |
| --- | --- | --- |
| O=C(O)C1Cc2ccccc2CN1C(=O)COc1ccc(Br)cc1 (stereo not drawn) | – | inconclusive: -48.2% [inhibitor] |
| CCN(CCCNS(=O)(=O)c1ccc2c(c1)CCN2C(C)=O)c1cccc(C)c1 | active: 22.4 µM | – |
| Cc1ccc2c(c1)-c1c(cnn1CC(=O)NC(C)CCc1ccco1)CO2 (stereo not drawn) | inactive | – |
| CC(Nc1cccc2ccccc12)C(=O)N/N=C/c1ccc([N+](=O)[O-])cc1 (stereo not drawn) | inconclusive: 17.8 µM [inhibitor, full curve, poor fit] | – |
| COc1ccc(-c2cn3cc(C(=O)NN)ccc3n2)cc1 | inconclusive: 79.4 µM [inhibitor, partial curve] | – |
| CCC(C)(C)NC(=O)C(c1cccn1C)N(C(=O)Cn1nnc2ccccc21)c1ccc(OC)cc1OC (stereo not drawn) | inconclusive: 50.1 µM [inhibitor, partial curve] | – |
| CCOc1ccccc1NC(=O)Cn1ccn(Cc2ccc(C)cc2)c(=O)c1=O | inactive | – |
| COc1ccc(-c2cc(=Nc3c(C)n(C)n(-c4ccccc4)c3=O)c3ccccc3o2)cc1 | inconclusive: 56.2 µM [inhibitor, partial curve] | – |
| COCCCNCCC(CCC(C)C)c1ccc2c(c1)OCO2 (stereo not drawn) | active: 20 µM | – |
| CC1=C(C(=O)OCc2ccccc2)C(c2ccccc2OS(=O)(=O)c2ccc([N+](=O)[O-])cc2)NC(=O)N1CCCC(=O)O (stereo not drawn) | inconclusive: 70.8 µM [inhibitor, partial curve] | – |
| COc1ccc2c(c1)c1c(c(=O)n(-c3cccc(Cl)c3)c(=O)n1CC(=O)N1CCCC1)n2C | inactive | – |
| O=C(Nc1ccc(Cl)cc1)N1CCN(c2ccccc2)CC1 | – | inactive: 5.34% [at 11.4 µM] |
| O=C(NCc1ccc2c(c1)OCO2)C1CCCN(S(=O)(=O)c2cccc3nonc23)C1 (stereo not drawn) | – | inactive: -26% [at 11.4 µM] |
| COc1ccc(/C=N/Nc2c(Cl)cc(Cl)cc2Cl)cc1CN1CCOCC1 | inconclusive: 50.1 µM [inhibitor, partial curve] | – |
| C[C@]12c3[nH]c4cc(-c5ccco5)ccc4c3CCN1C(=O)[C@@H](CC(=O)NCC13CC4CC(CC(C4)C1)C3)C[C@@H]2C(=O)N1CCCCC1 | inconclusive: 22.4 µM [inhibitor, full curve] | – |
| COc1cc(/C=C2\C(=N)N3N=C(S(C)(=O)=O)SC3=NC2=O)cc(OC)c1OCCOc1ccccc1C | active: 79.4 µM | – |
| COCCNC(=O)C1CCC(Cn2c(=S)[nH]c3ccccc3c2=O)CC1 (stereo not drawn) | active: 79.4 µM | – |
| Cc1cc2occ(CC(=O)N(C)CC(=O)Nc3cccc(F)c3)c2cc1C | inactive | – |
| O=C(O)c1cn(C2CC2)c2cc(N3CCN(S(=O)(=O)c4ccc5c(c4)OCCO5)CC3)c(F)cc2c1=O | inconclusive: 63.1 µM [inhibitor, partial curve] | – |
| CC1CCCC(C)N1C(=O)CSc1nnc(COc2cccc3cccnc23)o1 (stereo not drawn) | inactive | – |
| COCCN1Cc2cccc(C(=O)NC3CCCCCC3)c2C1=O | inconclusive: 3.55 µM [inhibitor, partial curve] | – |
